Measured values from patent publication US9637451B2, “Indole compound” (ASTELLAS PHARMA INC., priority 2014, dated 2017).
For part of these data: At least one read-out could not be matched to a standard name with certainty. Some of these results come from one statement about several compounds together.

Assays:
SD female rats = test: Effect of test compound on urethral pressure in anesthetized rats; type: in vivo, rat; details: urethane-anesthetized SD female rats
From the text: SD female rats were anesthetized with urethane and subjected to laparotomy. Then, the bladder apex was incised and a catheter was inserted from the bladder apex. Further, the catheter tip was ligated and fixed to be located in the proximal urethra portion. The catheter was connected to a pressure transducer and an infusion pump. Further, a catheter for administrating the compound was fitted into the femoral vein. Physiological saline was continuously infused into the urethra and the perfusion pressure in the urethra was measured. After the urethral pressure was stabilized, the test compound that had been dissolved in physiological saline, or physiological saline including 5% dimethylacetamide and 0.5% Cremophor was administered intravenously at 0.01 mg/kg or 0.1 mg/kg, and a change in urethral pressures was measured.
Further, the results of administering an active metabolite of midodrine (ST-1059: purchased from CHEMIZON) (J. Urology, 118, 980-982 (1977)) which is an α1 adrenoceptor agonist and is confirmed to have a clinical effect on stress urinary incontinence at doses, 0.01 mg/kg and, 0.1 mg/kg in rats, presumed to correspond to the clinical doses are referenced and shown in the Tables below.
The increment value in the urethral pressures of ramelteon and the Example compounds of the present invention at the time of administration are shown in Table 3. Ex represents Example No. of the test compound and N.T represents Not Tested.

[1] = Xenobiotica, 42, 11-27 (2012); cited from earlier work

| SMILES | Increment value in the urethral pressures (SD female rats; 0.01 mg/kg intravenously) | Increment value in the urethral pressures (SD female rats; 0.1 mg/kg intravenously) | Kp,uu,CSF [1] |
| --- | --- | --- | --- |
| CC(=O)NCCc1c(C)[nH]c2ccc(OCCOc3ccn(C)n3)cc12 [Example 7, N-[2-(2-methyl-5-{2-[(1-methyl-1H-pyrazol-3-yl)oxy]ethoxy}-1H-indol-3-yl)ethyl]acetamide] | 6.3 ± 0.8 mmHg | 6.9 ± 0.9 mmHg | – |
| Cc1ccc(NC(=O)c2ccc(CN3CCN(C)CC3)cc2)cc1Nc1nccc(-c2cccnc2)n1 [Imatinib] | – | – | ≤ 0.11 |
| CC(=O)NCCc1c(C)[nH]c2cc(F)c(OCCOc3ccn(C)n3)cc12 [Example 13, N-[2-(6-fluoro-2-methyl-5-{2-[(1-methyl-1H-pyrazol-3-yl)oxy]ethoxy}-1H-indol-3-yl)ethyl]acetamide] | 7.7 ± 1.5 mmHg | 10.0 ± 2.3 mmHg | – |
| CC(=O)NCCc1c[nH]c2cc(F)c(OCCOc3ccn(C)n3)cc12 [Example 6, N-[2-(6-fluoro-5-{2-[(1-methyl-1H-pyrazol-3-yl)oxy]ethoxy}-1H-indol-3-yl)ethyl]acetamide] | 6.7 ± 1.1 mmHg | 9.6 ± 1.3 mmHg | – |
| CNC(=O)NCCc1c(C)[nH]c2ccc(OCCOc3ccc(OC)nc3)cc12 [Example 31, 1-[2-(5-{2-[(6-methoxypyridin-3-yl)oxy]ethoxy}-2-methyl-1H-indol-3-yl)ethyl]-3-methylurea] | 5.2 ± 0.9 mmHg | 7.7 ± 1.2 mmHg | – |
| CNC(=O)NCCc1c[nH]c2ccc(OCCOc3ccc(OC)nc3)cc12 [Example 23, 1-[2-(5-{2-[(6-methoxypyridin-3-yl)oxy]ethoxy}-1H-indol-3-yl)ethyl]-3-methylurea] | 5.6 ± 1.0 mmHg | 8.9 ± 0.9 mmHg | – |
| CCC(=O)NCC[C@@H]1CCc2ccc3c(c21)CCO3 [Ramelteon, ramelteon, reference compound] | 6.4 ± 1.0 mmHg | 11.1 ± 1.7 mmHg | – |
| CNC(=O)NCCc1c(C)[nH]c2ccc(OCCOc3ccn(C)n3)cc12 [Example 10, 1-methyl-3-[2-(2-methyl-5-{2-[(1-methyl-1H-pyrazol-3-yl)oxy]ethoxy}-1H-indol-3-yl)ethyl]urea] | 4.4 ± 1.2 mmHg | 8.0 ± 1.2 mmHg | – |
| CC(=O)NC[C@H](C)c1c[nH]c2cc(F)c(OCCOc3ccn(C)n3)cc12 [Example 37, N-[(2R)-2-(6-fluoro-5-{2-[(1-methyl-1H-pyrazol-3-yl)oxy]ethoxy}-1H-indol-3-yl)propyl]acetamide] | – | 9.0 ± 0.6 mmHg | – |
| CCC(=O)NCCc1c(C)[nH]c2ccc(OCCOc3ccn(C)n3)cc12 [Example 1, N-[2-{2-methyl-5-(2-[(1-methyl-1H-pyrazol-3-yl)oxy]ethoxy}-1H-indol-3-yl)ethyl]propanamide] | 6.7 ± 0.6 mmHg | 9.3 ± 1.5 mmHg | – |
| CCC(=O)NCCc1c(C)[nH]c2ccc(OCCn3ccc(C)n3)cc12 [Example 15, N-(2-{2-methyl-5-[2-(3-methyl-1H-pyrazol-1-yl)ethoxy]-1H-indol-3-yl}ethyl)propanamide] | 6.4 ± 0.5 mmHg | 11.2 ± 0.5 mmHg | – |
| CCC(=O)NCCc1c[nH]c2ccc(OCCOc3ccn(C)n3)cc12 [Example 8, N-[2-(5-{2-[(1-methyl-1H-pyrazol-3-yl)oxy]ethoxy}-1H-indol-3-yl)ethyl]propanamide] | 4.7 ± 0.4 mmHg | 7.6 ± 1.3 mmHg | – |
| CC(=O)NC[C@H](C)c1c[nH]c2cc(Cl)c(OCCOc3ccn(C)n3)cc12 [Example 38, N-[(2R)-2-(6-chloro-5-{2-[(1-methyl-1H-pyrazol-3-yl)oxy]ethoxy}-1H-indol-3-yl)propyl]acetamide] | – | 9.4 ± 2.6 mmHg | – |
| CC(=O)NCCc1c[nH]c2ccc(OCCn3ccc(C(F)(F)F)n3)cc12 [Example 4, N-[2-(5-{2-[3-(trifluoromethyl)-1H-pyrazol-1-yl]ethoxy}-1H-indol-3-yl)ethyl]acetamide] | – | 7.5 ± 1.6 mmHg | – |
| CNC(=O)NCCc1c(C)[nH]c2ccc(OCCOc3ccnc(C)c3)cc12 [Example 9, 1-methyl-3-[2-(2-methyl-5-{2-[(2-methylpyridin-4-yl)oxy]ethoxy}-1H-indol-3-yl)ethyl]urea] | – | 8.0 ± 1.2 mmHg | – |
| CC(=O)NCCc1c[nH]c2ccc(OCCOc3cccc(C)n3)cc12 [Example 11, N-[2-(5-{2-[(6-methylpyridin-2-yl)oxy]ethoxy}-1H-indol-3-yl)ethyl]acetamide] | 4.1 ± 0.8 mmHg | 8.1 ± 0.6 mmHg | – |
| COc1ccc(OCCOc2ccc3[nH]cc(CCNC(C)=O)c3c2)cn1 [Example 5, N-[2-(5-{2-[(6-methoxypyridin-3-yl)oxy]ethoxy}-1H-indol-3-yl)ethyl]acetamide] | 4.8 ± 0.6 mmHg | 8.2 ± 1.0 mmHg | – |
| CC(=O)NCCc1c(C)[nH]c2ccc(OCCOc3ccnc(C)c3)cc12 [Example 18, N-[2-(2-methyl-5-{2-[(2-methylpyridin-4-yl)oxy]ethoxy}-1H-indol-3-yl)ethyl]acetamide] | – | 8.3 ± 0.7 mmHg | – |
